Data published in paper PMC4336329 (PLoS ONE, 2015).
The whole screen tested about 310,000 compounds, of which about 2,200 (0.71%) showed an effect of 50% or more. Effects have a minus sign here. Some of the results follow.

molecular target: human ether-à-go-go-related gene (hERG) potassium channel (human, UniProt Q12809); test: primary screen, population patch clamp on CHO cells stably expressing hERG
Sequence (Q12809 whole entry, looked up): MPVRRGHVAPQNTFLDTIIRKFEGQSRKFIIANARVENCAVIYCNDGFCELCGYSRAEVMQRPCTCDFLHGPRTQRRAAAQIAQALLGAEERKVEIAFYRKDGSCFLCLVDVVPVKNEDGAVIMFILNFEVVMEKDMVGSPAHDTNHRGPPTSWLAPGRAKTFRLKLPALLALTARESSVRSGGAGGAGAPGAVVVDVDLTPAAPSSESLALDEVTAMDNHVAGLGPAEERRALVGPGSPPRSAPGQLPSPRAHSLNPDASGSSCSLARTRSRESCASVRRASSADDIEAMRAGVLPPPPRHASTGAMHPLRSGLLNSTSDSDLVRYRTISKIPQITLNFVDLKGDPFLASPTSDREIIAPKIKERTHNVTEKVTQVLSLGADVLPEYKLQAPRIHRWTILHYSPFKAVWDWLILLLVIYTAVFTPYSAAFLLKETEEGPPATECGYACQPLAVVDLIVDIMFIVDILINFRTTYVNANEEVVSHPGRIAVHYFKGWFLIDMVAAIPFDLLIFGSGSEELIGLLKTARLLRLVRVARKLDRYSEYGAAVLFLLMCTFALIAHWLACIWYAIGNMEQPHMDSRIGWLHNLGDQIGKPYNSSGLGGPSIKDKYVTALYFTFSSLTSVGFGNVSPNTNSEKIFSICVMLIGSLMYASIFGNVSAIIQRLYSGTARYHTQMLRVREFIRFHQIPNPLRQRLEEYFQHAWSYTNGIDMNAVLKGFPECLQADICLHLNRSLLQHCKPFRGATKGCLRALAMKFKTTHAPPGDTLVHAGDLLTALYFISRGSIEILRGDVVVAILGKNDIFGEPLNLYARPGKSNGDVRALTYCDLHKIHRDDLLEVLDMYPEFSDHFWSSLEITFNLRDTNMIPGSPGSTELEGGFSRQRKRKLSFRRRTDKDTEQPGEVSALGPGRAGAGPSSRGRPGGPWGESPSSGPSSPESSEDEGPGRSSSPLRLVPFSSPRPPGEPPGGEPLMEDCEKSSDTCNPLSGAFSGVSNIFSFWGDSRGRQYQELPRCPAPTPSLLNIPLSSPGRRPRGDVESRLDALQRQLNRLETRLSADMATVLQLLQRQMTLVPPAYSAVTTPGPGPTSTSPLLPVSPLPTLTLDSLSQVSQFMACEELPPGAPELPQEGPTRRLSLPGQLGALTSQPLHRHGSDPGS

SMILES	hERG current change (%, negative = inhibition) at 1uM [%]
O=C(CSc1ccc2nnc(-c3cccnc3)n2n1)Nc1ccc(F)cc1	-0.488
COc1ccc(NC(=O)CCN2CCN(S(=O)(=O)c3cc(Cl)ccc3OC)CC2)cc1	9.95
NC1=NC[C@@H](Cc2ccc(O)cc2)N1CCCCC1CCCCC1	8.18
COc1ccc(C(OC(=O)c2ccco2)C(=O)NC2CCCC2)cc1OC (centres unmarked)	9.39
Cc1ccccc1NC(=O)c1ccc(CN(c2ccccc2)S(=O)(=O)c2ccccc2)cc1	7.73
COc1ccc(OCCCC(=O)Nc2nccs2)cc1	16.7
O=C(CCCn1c(=S)[nH]c2cc3c(cc2c1=O)OCO3)NC1CC1	9.78
COC(=O)CSc1nnc(-c2ccc(S(=O)(=O)N3CCCC3)cc2)o1	19.6
Cc1ccc(O)c(C2=Nc3ccccc3N=C(c3ccco3)C2)c1	8.73
O=C1CCC(C(=O)N2CCC(CCO)CC2)CN1Cc1ccc(Cl)cc1 (centres unmarked)	-2.64
COc1ccc(-c2cc(C(=O)Nc3ccccc3SC)no2)cc1OC	-1.28
CCOC(=O)c1cccc(NC(=O)CCc2nnc3ccc(N4CCCCC4)nn23)c1	15
O=C(Nc1ccc(SC(F)F)cc1)c1ccc2nccnc2c1	3.35
CCCC1(C(=O)O)NC(c2ccc(OC)cc2O)C2C(=O)N(c3ccc(OC)cc3)C(=O)C21 (centres unmarked)	14.7
CC(=O)Nc1ccc(NC(=O)Cc2sc(C)nc2-c2ccc(C)cc2)cc1	-1.13
CCOCCCNC(=O)CCc1nnc2n(CCC(C)C)c(=O)c3ccccc3n12	4.7
O=C(NCCN1CCOCC1)c1cccc(S(=O)(=O)Nc2ccc(F)cc2)c1	5
CCC(C(=O)OCC(=O)Nc1c(Cl)cc(Cl)cc1Cl)c1ccccc1 (centres unmarked)	9.64
Cc1ccc(C)c(OCCC(=O)OCC(=O)N2c3ccccc3NC(=O)C2(C)C)c1	-6.56
Cc1ccc(-c2cc(C(=O)N3CC(C)OC(C)C3)c3ccccc3n2)o1 (centres unmarked)	-3.72
COc1cc(OC)cc(C(=O)Nc2ccccc2N2CCOCC2)c1	-7.1
CCC1CCCCN1CCCNC(=O)CS(=O)(=O)Cc1nc(-c2cccc(OC)c2)oc1C (centres unmarked)	1.71

SMILES	hERG current change (%, negative = inhibition) at 1uM [%]
O=C(Nc1ccc(Oc2cccc(C(F)(F)F)c2)nc1)c1cccs1	12.6
C=CCNc1nc(Nc2ccc(-c3nc4ccccc4o3)cc2)nc(N2CCOCC2)n1	2.46
Cc1noc(C)c1CSc1nc2ccccc2c(=O)n1-c1ccc(F)cc1F	-5.75
CCN(CC(=O)Nc1ccc(NC(C)=O)cc1)C(=O)c1cccc(S(=O)(=O)N2CCCC2)c1	9.12
COc1ccccc1NC(=O)c1cc(S(=O)(=O)N2CCc3ccccc32)ccc1F	7.55
CCOC(=O)/C(N=Nc1ccc(F)cc1)=C(/O)c1ccc([N+](=O)[O-])cc1	13.8
CCCCc1ccc(N=N/C(C(=O)Nc2cc(OC)c(NC(C)=O)cc2OC)=C(/C)O)cc1	16.4
CC1=C(C(=O)N(C)C)C(c2ccc(N3CCOCC3)cc2)NC(=O)N1 (centres unmarked)	14.9
NC(=O)CC(NC(=O)Cc1cccc2ccccc12)c1ccc(NCc2ccccc2)c([N+](=O)[O-])c1 (centres unmarked)	-0.125
CC(C)c1nc2n[nH]c(N)c2c2c1CSC(C)(C)C2	3.45
COCCN(C(=O)COC(=O)Cc1ccc(Cl)cc1Cl)c1c(N)n(Cc2ccccc2)c(=O)[nH]c1=O	11.2
CC(C1CCN(Cc2nc(C3CC3)no2)CC1)N1CCOCC1 (centres unmarked)	8.89
CCc1ccc([C@@H]2C[C@H]3CN(Cc4ccccc4OC)C(=O)[C@]34CCCN24)cc1	-28.8
CCN1C(=O)/C(=C\C(=O)c2cccs2)c2cc(Br)ccc21	11.7
Cc1cccc(OP(N)(N)=O)c1C	18
Cc1nccc(-c2ccc3c(c2)OCO3)n1	-2.29
Cc1ccc(/C=C/c2onc(C)c2S(=O)(=O)N2CCC(C(=O)N3CCN(C)CC3)CC2)cc1	14.1
CCCC(=O)N1CCN(c2nc3ccc(Br)cc3s2)CC1	-25.2
Oc1c(N=Nc2ccccn2)ccc2ccccc12	15.9
COc1ccc(N2CCN(C(=O)CSc3ccc([N+](=O)[O-])cc3)CC2)cc1	-85.1
COc1ccc(S(=O)(=O)NCc2cccnc2)cc1NC(=O)c1ccc(C)cc1	-0.856
Nc1nc(SCC(=O)Nc2ccc(Cl)c([N+](=O)[O-])c2)n[nH]1	6.98
